{"source": "patent US7972854", "proteins": {"B1": {"name": "5-10 ZFP/FokI fusion protein (wild-type FokI cleavage half-domain) (protein)", "chain": "MAPKKKRKVGIHGVPAAMAERPFQCRICMRNFSRSDSLSRHIRTHTGEKPFACDICGRKFADSSNRKTHTKIHTGGGGSQKPFQCRICMRNFSRSDSLSVHIRTHTGEKPFACDICGRKFADRSNRITHTKIHLRQKDAARGSQLVKSELEEKKSELRHKLKYVPHEYIELIEIARNSTQDRILEMKVMEFFMKVYGYRGKHLGGSRKPDGAIYTVGSPIDYGVIVDTKAYSGGYNLPIGQADEMQRYVEENQTRNKHINPNEWWKVYPSSVTEFKFLFVSGHFKGNYKAQLTRLNHITNCNGAVLSVEELLIGGEMIKAGTLTLEEVRRKFNNGEINF"}, "B2": {"name": "5-8 ZFP/FokI fusion protein (wild-type FokI cleavage half-domain) (protein)", "chain": "MAPKKKRKVGIHGVPAAMAERPFQCRICMRNFSRSDNLSEHIRTHTGEKPFACDICGRKFARNAHRINHTKIHTGSQKPFQCRICMRNFSRSDTLSEHIRTHTGEKPFACDICGRKFAARSTRTTHTKIHLRQKDAARGSQLVKSELEEKKSELRHKLKYVPHEYIELIEIARNSTQDRILEMKVMEFFMKVYGYRGKHLGGSRKPDGAIYTVGSPIDYGVIVDTKAYSGGYNLPIGQADEMQRYVEENQTRNKHINPNEWWKVYPSSVTEFKFLFVSGHFKGNYKAQLTRLNHITNCNGAVLSVEELLIGGEMIKAGTLTLEEVRRKFNNGEINF"}}, "key": {"[1]": {"biological_target": "5-10 (E490K) mutant ZFP/FokI fusion protein"}}, "data": [{"protein": "B1", "values": [{"measurement": "DNA cleavage", "value": "Non-specific"}]}, {"protein": "B2", "values": [{"measurement": "DNA cleavage", "setting": "[1]", "value": "Specific"}]}]}
